# Whole data set: some 33,000 sequences, median “E-score (-0.5 to 0.5)” near -0.01, cut for the highest 2% near 0.26. The list shows a part of the results.
# Molecular target: Ste12 (UniProt P13574)
# Assay: PBM E-score (8-mer binding enrichment) (E-score (-0.5 to 0.5)); higher = stronger / more preferred TF binding; most listed sequences are background and not binding sites
# Details: protein concentration: 200 nM; construct: GST-DNA-binding domain
# Outline: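 Yeast transcription factors carrying a GST tag, as full-length proteins or DNA-binding domains, were produced by PURExpress in vitro transcription/translation. About 100-200 nM protein was applied to universal all-10-mer Agilent arrays, double-stranded by primer extension on fresh or once-stripped slides. Bound protein was detected with fluorescent anti-GST, and scans were normalised with masliner. The Universal PBM Analysis Suite gave each ungapped eight-base word, pooled with its reverse complement, an E-score, a modified Wilcoxon-Mann-Whitney statistic.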
row,Sequence,PBM E-score
1,GCGAAGTA,-0.137
2,ACGGTGAC,-0.0201
3,ATCGACAC,-0.00445
4,CTTCACAA,-0.0638
5,ACAATGAG,-0.00083
6,CCACGCTC,-0.153
7,GATAGTAC,-0.00566
8,ATCTTTCG,0.14
9,AACAGTGG,0.0219
10,CCTACCCC,-0.0986
11,ACATAAAA,0.17
12,AAATCAGA,0.122
13,CAACCTGG,-0.107
14,CCCCGGAA,-0.11
15,CTGCCGAC,-0.00908
16,ACTTGTCT,-0.0183
17,AGACGGGA,-0.012
18,ATTCTCCA,0.145
19,CCCCCACA,-0.198
20,CCACGCCC,-0.12
21,ACGTCGAT,0.0744
22,ACTAACTC,-0.114
23,CTGATAAG,0.0484
24,CAATTAGC,0.0432

row,Sequence,PBM E-score
1,CCGTCATA,0.157
2,ACACTTTA,0.0929
3,ACCAATCA,0.0653
4,GTCTTTCA,0.00039
5,ACGTTTGC,-0.135
6,ACAGACAT,-0.0493
7,TACCATGA,-0.0381
8,AGGGCCCG,0.0968
9,ATCGGACC,-0.158
10,GACGCCAC,-0.13
11,AAGGAAGC,0.0847
12,TAGAACCA,-0.12
13,GTAGCAGA,0.156
14,CCCCCAAC,-0.0757
15,ACCCCGCG,-0.0209
16,CCTGTGGA,-0.198
17,GCAAGATA,0.0328
18,ACGCTAAC,-0.0227
19,GCGACCGC,-0.103
20,ATGCCGGC,0.0346
21,GTGCTGGA,-0.136
22,CTAGATGA,-0.00199
23,CAGGCACA,-0.26
24,AGAGGTGC,-0.253

row,Sequence,PBM E-score
1,GAGGTTTA,0.014
2,GTAATAAC,0.0516
3,GCTGGTCA,-0.0653
4,ATATGCAG,-0.108
5,AACTGTCT,-0.0653
6,CCGTTTAG,-0.0272
7,ATGGTGGA,-0.0486
8,CCTCAAAG,-0.211
9,AGCAGTGA,-0.0211
10,AGGGTCGA,0.0187
11,ACCTCAGT,0.0429
12,AGTGAGTC,-0.194
13,GCCCTTCC,-0.0896
14,CAATTTGC,0.00867
15,AAGCGTTA,-0.0692
16,ATTTAGAG,0.173
17,TAAGTGTA,0.0872
18,ATCTCTCA,0.165
19,GCTGGGAA,0.0695
20,ACTGCGGC,-0.0139
21,CGTAACGA,-0.0713
22,CGTTCGCA,-0.119
23,CCGGGTAG,-0.118
24,CGCACCCC,-0.0205

row,Sequence,PBM E-score
1,TTAGCCAA,-0.0076
2,TAACAGAA,0.249
3,GAGGCTCA,-0.23
4,GCATACAC,-0.218
5,AAATATAG,0.17
6,AGACTACG,-0.276
7,CGACCCCG,0.0973
8,CGCTTAAA,0.154
9,CATTTTGA,0.144
10,ATTATTCA,0.111
11,TAAGGATA,0.0921
12,CCTTTATC,-0.0768
13,CTCCCAGC,-0.0704
14,GTGTGAGA,0.0959
15,AATCTACG,0.0245
16,AATCAATG,0.0688
17,GGTGCTAA,-0.0919
18,CGCGTGGC,-0.155
19,AATTCAGG,0.152
20,CTCACAAA,0.111
21,CACAACTA,0.153
22,ATGGTTGA,-0.00188

# — the supplement of paper PMC3334620
